{"source": "patent US20110008345A1", "about": "(GlaxoSmithKline, published 2011)", "key": {"[1]": {"target": "T1, recombinant E. coli-expressed human IL-13 (human, UniProt P35225 partial chain)", "T1 construct": "made and purified at GSK; also called Interleukin-13; rhIL-13", "assay": "SPR stoichiometry, IL-13 injected 3rd"}, "[2]": {"target": "T2, recombinant E. coli-expressed human IL-18 (human, UniProt Q14116 37-193)", "assay": "SPR stoichiometry, IL-18 injected 2nd"}, "[3]": {"target": "T1, recombinant E. coli-expressed human …", "assay": "SPR stoichiometry, IL-13 injected 2nd"}, "[4]": {"target": "T2, recombinant E. coli-expressed human …", "assay": "SPR stoichiometry, IL-18 injected 1st"}, "[5]": {"target": "T1, recombinant E. coli-expressed human …", "assay": "SPR stoichiometry, IL-13 injected 1st"}, "[6]": {"target": "T3, recombinant E. coli-expressed human IL-4 (human, UniProt P05112 25-153)", "T3 construct": "made and purified at GSK; also called Interleukin-4; rhIL-4", "T3 sequence": "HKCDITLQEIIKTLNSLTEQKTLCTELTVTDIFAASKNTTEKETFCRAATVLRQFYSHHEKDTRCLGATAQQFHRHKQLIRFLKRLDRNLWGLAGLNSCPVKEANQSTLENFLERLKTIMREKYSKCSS", "assay": "SPR stoichiometry, IL-4 injected 1st"}, "[7]": {"target": "T2, recombinant E. coli-expressed human …", "assay": "SPR"}, "[8]": {"target": "T1, recombinant E. coli-expressed human …", "assay": "SPR"}, "[9]": {"target": "T3, recombinant E. coli-expressed human IL-4", "assay": "SPR stoichiometry, IL-4 injected 3rd"}, "[10]": {"target": "T3, recombinant E. coli-expressed human IL-4", "assay": "SPR stoichiometry, IL-4 injected 2nd"}, "[11]": {"target": "T2, recombinant E. coli-expressed human …", "assay": "SPR stoichiometry, IL-18 injected 3rd"}}, "note": "Values joined by “and” are separate entries in the source; they are usually repeats but may differ in a detail not shown here. Equal entries are not always repeated.", "data": [{"binder": "IL18mAb-210-474 (other, trispecific mAbdAb; also called trispecific anti-IL18 mAb-anti-IL4dAb-anti-IL13dAb) heavy: QVQLVQSGAEVKKPGASVKVSCKVSGEISTGYYFHWVRQAPGKGLEWMGRIDPEDDSTKYAERFKDRVTMTEDTSTDTAYMELSSLRSEDTAVYYCTTWRIYRDSSGRPFYVMDAWGQGTLVTVSS[human IgG1 constant region omitted]GGGGSEVQLLESGGGLVQPGGSLRLSCAASGFTFRNFGMGWVRQAPGKGLEWVSWIISSGTETYYADSVKGRFTISRDNSKNTLYLQMNSLRAEDTAVYYCAKSLGRFDYWGQGTLVTVSS light: DIQMTQSPSSVSASVGDRVTITCLASEDIYTYLTWYQQKPGKAPKLLIYGANKLQDGVPSRFSGSGSGTDYTLTISSLQPEDFATYYCLQGSKFPLTFGQGTKLEIKRTVAAPSVFIFPPSDEQLKSGTASVVCLLNNFYPREAKVQWKVDNALQSGNSQESVTEQDSKDSTYSLSSTLTLSKADYEKHKVYACEVTHQGLSSPVTKSFNRGECGGGGSGVQLLESGGGLVQPGGSLRLSCAASGFTFAWYDMGWVRQAPGKGLEWVSSIDWHGEVTYYADSVKGRFTISRDNSKNTLYLQMNSLRAEDTAVYYCATAEDEPGYDYWGQGTLVTVSS", "values": [{"measurement": "Stoichiometry", "setting": "[1]", "value": 1.8}, {"measurement": "Stoichiometry", "setting": "[2]", "value": 1.8}, {"measurement": "Stoichiometry", "setting": "[3]", "value": 1.7}, {"measurement": "Stoichiometry", "setting": "[4]", "value": 1.8}, {"measurement": "Stoichiometry", "setting": "[5]", "value": 1.6}, {"measurement": "Stoichiometry", "setting": "[6]", "value": 0.9}, {"measurement": "Kd", "setting": "[7]", "value": "0.011 nM and 0.014 nM"}, {"measurement": "Kd", "setting": "[8]", "value": "0.99 nM and 1 nM"}, {"measurement": "Stoichiometry", "setting": "[9]", "value": 0.8}, {"measurement": "Stoichiometry", "setting": "[10]", "value": 0.9}, {"measurement": "Stoichiometry", "setting": "[11]", "value": 1.7}]}]}
